# From the supplement of paper PMC10037445
# Several values for one entry are separate records, joined by “and”; a condition that tells them apart may be missing. Equal entries are not always repeated. Over roughly 2,900 compounds, “NF-kB SEAP reporter activity, fold change vs agonist alone” has its median near 0.99; the highest 2% begin near 2.6. The list shows a part of the results.
# Key:
# RAW-Dual [1] = test: NF-kB SEAP reporter activity, fold change vs agonist alone; higher = enhanced NF-kB activity; settings: cytotoxicity flag (confluency mask): not cytotoxic
# Summary of the method: (§1)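 RAW-Dual macrophages (50,000 cells/well in DMEM, 384-well plates) received 50 nL of library stock by pin tool, then a PRR agonist 1 h later, and were kept at 37 °C, 5% CO2. After 20 hours, supernatant was read for IRF by QuantiLuc luminescence and for NF-κB by QuantiBlue absorbance at 620 nm. Reporter activity is fold change over agonist-alone wells. Cytotoxic wells had IncuCyte confluency below 70% of agonist controls in both mask sets.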
# RAW-Dual [2] = test: NF-kB SEAP reporter activity, fold change vs agonist alone; cytotoxicity flag (confluency mask): not cytotoxic; higher = enhanced NF-kB activity
# Summary of the method: as §1
# [3] = library stock concentration (final ~1000-fold dilution): 10 mM, agonist: Imiquimod (TLR7) […]
# [4] = library stock concentration (final ~1000-fold dilution): 10 mM, agonist: MPLA (TLR4) […]
# [5] = agonist: ODN 1826 (TLR9) 0.5 ug/mL
# [6] = agonist: Pam2CSK4 (TLR2/6) 0.1 ug/mL
# [7] = agonist: Pam3CSK4 (TLR2/1) 0.1 ug/mL
compound,measurement,setting,value
Cc1cc(NC(=O)Nc2ccc(N(C)C)cc2)c2cc(F)cc(F)c2n1,NF-kB SEAP reporter activity,RAW-Dual [1]; [3],0.989
same,NF-kB SEAP reporter activity,RAW-Dual [1]; [4],1.04
CC(C)NCC(O)COc1ccc(CCOCC2CC2)cc1.Cl (centres undefined) (library stock concentration (final ~1000-fold dilution): 10 mM),NF-kB SEAP reporter activity,RAW-Dual [2]; agonist: LPS (TLR4) 0.1 ug/mL,1.18
same,NF-kB SEAP reporter activity,RAW-Dual [2]; [5],0.83
same,NF-kB SEAP reporter activity,RAW-Dual [2]; [6],1.02
same,NF-kB SEAP reporter activity,RAW-Dual [2]; [7],1.24
CC(C)NCC(O)COc1ccc(CCOCC2CC2)cc1.Cl (centres undefined),NF-kB SEAP reporter activity,RAW-Dual [1]; [3],0.875
same,NF-kB SEAP reporter activity,RAW-Dual [1]; [4],0.894
Cc1[nH]c2ccccc2c1CCNC(=O)c1cccs1 (library stock concentration (final ~1000-fold dilution): 10 mM),NF-kB SEAP reporter activity,RAW-Dual [2]; agonist: LPS (TLR4) 0.1 ug/mL,1
same,NF-kB SEAP reporter activity,RAW-Dual [2]; [5],1.06
same,NF-kB SEAP reporter activity,RAW-Dual [2]; [6],1.12
same,NF-kB SEAP reporter activity,RAW-Dual [2]; [7],0.991
Cc1[nH]c2ccccc2c1CCNC(=O)c1cccs1,NF-kB SEAP reporter activity,RAW-Dual [1]; [3],1.06
same,NF-kB SEAP reporter activity,RAW-Dual [1]; [4],1.11
CC(C)N(CCC(c1ccccc1)c1cc(CO)ccc1O)C(C)C (centres undefined) (library stock concentration (final ~1000-fold dilution): 10 mM),NF-kB SEAP reporter activity,RAW-Dual [2]; agonist: LPS (TLR4) 0.1 ug/mL,1.39
same,NF-kB SEAP reporter activity,RAW-Dual [2]; [5],0.944
same,NF-kB SEAP reporter activity,RAW-Dual [2]; [6],0.978
same,NF-kB SEAP reporter activity,RAW-Dual [2]; [7],1.07
CC(C)N(CCC(c1ccccc1)c1cc(CO)ccc1O)C(C)C (centres undefined),NF-kB SEAP reporter activity,RAW-Dual [1]; [3],0.971
same,NF-kB SEAP reporter activity,RAW-Dual [1]; [4],0.976
COc1ccc(/C=C/C(=O)O)cc1OC,NF-kB SEAP reporter activity,RAW-Dual [1]; [3],0.805
same,NF-kB SEAP reporter activity,RAW-Dual [1]; [4],1.05
COc1ccc(/C=C/C(=O)O)cc1OC (library stock concentration (final ~1000-fold dilution): 10 mM),NF-kB SEAP reporter activity,RAW-Dual [2]; agonist: LPS (TLR4) 0.1 ug/mL,1.43
same,NF-kB SEAP reporter activity,RAW-Dual [2]; [5],1.15
same,NF-kB SEAP reporter activity,RAW-Dual [2]; [6],1.15
same,NF-kB SEAP reporter activity,RAW-Dual [2]; [7],1.14
CC12CC3CC(C)(C1)CC(N)(C3)C2.Cl,NF-kB SEAP reporter activity,RAW-Dual [1]; [3],0.618
same,NF-kB SEAP reporter activity,RAW-Dual [1]; [4],0.696
CC12CC3CC(C)(C1)CC(N)(C3)C2.Cl (library stock concentration (final ~1000-fold dilution): 10 mM),NF-kB SEAP reporter activity,RAW-Dual [2]; agonist: LPS (TLR4) 0.1 ug/mL,1.06
same,NF-kB SEAP reporter activity,RAW-Dual [2]; [5],0.741
same,NF-kB SEAP reporter activity,RAW-Dual [2]; [6],1.08
same,NF-kB SEAP reporter activity,RAW-Dual [2]; [7],0.948
Cc1nc2ccc(-n3ncc(C(=O)c4cc5ccccc5[nH]4)c3N)cc2[nH]1 (library stock concentration (final ~1000-fold dilution): 10 mM),NF-kB SEAP reporter activity,RAW-Dual [2]; agonist: LPS (TLR4) 0.1 ug/mL,0.839
same,NF-kB SEAP reporter activity,RAW-Dual [2]; [5],0.395
same,NF-kB SEAP reporter activity,RAW-Dual [2]; [6],0.399
same,NF-kB SEAP reporter activity,RAW-Dual [2]; [7],0.427
Cc1nc2ccc(-n3ncc(C(=O)c4cc5ccccc5[nH]4)c3N)cc2[nH]1,NF-kB SEAP reporter activity,RAW-Dual [1]; [3],0.618
same,NF-kB SEAP reporter activity,RAW-Dual [1]; [4],0.814
COc1cc(C2CC(c3ccccc3)=NN2C(N)=S)cc(OC)c1OC (centres undefined),NF-kB SEAP reporter activity,RAW-Dual [1]; [3],1.58
same,NF-kB SEAP reporter activity,RAW-Dual [1]; [4],1.29
COc1cc(C2CC(c3ccccc3)=NN2C(N)=S)cc(OC)c1OC (centres undefined) (library stock concentration (final ~1000-fold dilution): 10 mM),NF-kB SEAP reporter activity,RAW-Dual [2]; agonist: LPS (TLR4) 0.1 ug/mL,1.16
same,NF-kB SEAP reporter activity,RAW-Dual [2]; [5],1.25
same,NF-kB SEAP reporter activity,RAW-Dual [2]; [6],0.997
same,NF-kB SEAP reporter activity,RAW-Dual [2]; [7],1.13
COc1cc2c(cc1OC)C(=O)C(CC1CCN(Cc3ccccc3)CC1)C2.Cl (centres undefined),NF-kB SEAP reporter activity,"RAW-Dual [1]; library stock concentration (final ~1000-fold dilution): 10 mM water, agonist: Imiquimod (TLR7) […]",0.84
same,NF-kB SEAP reporter activity,"RAW-Dual [1]; library stock concentration (final ~1000-fold dilution): 10 mM water, agonist: MPLA (TLR4) […]",1.08
COc1cc2c(cc1OC)C(=O)C(CC1CCN(Cc3ccccc3)CC1)C2.Cl (centres undefined) (library stock concentration (final ~1000-fold dilution): 10 mM water),NF-kB SEAP reporter activity,RAW-Dual [2]; agonist: LPS (TLR4) 0.1 ug/mL,1.35
same,NF-kB SEAP reporter activity,RAW-Dual [2]; [5],1.16
same,NF-kB SEAP reporter activity,RAW-Dual [2]; [6],1.28
same,NF-kB SEAP reporter activity,RAW-Dual [2]; [7],1.29
CC(Oc1ccc2c(c1)OCCn1cc(-c3ncnn3C(C)C)nc1-2)C(N)=O (centres undefined),NF-kB SEAP reporter activity,RAW-Dual [1]; [3],0.585
same,NF-kB SEAP reporter activity,RAW-Dual [1]; [4],1.4
CC(Oc1ccc2c(c1)OCCn1cc(-c3ncnn3C(C)C)nc1-2)C(N)=O (centres undefined) (library stock concentration (final ~1000-fold dilution): 10 mM),NF-kB SEAP reporter activity,RAW-Dual [2]; agonist: LPS (TLR4) 0.1 ug/mL,2.07
same,NF-kB SEAP reporter activity,RAW-Dual [2]; [5],1.1
same,NF-kB SEAP reporter activity,RAW-Dual [2]; [6],0.894
same,NF-kB SEAP reporter activity,RAW-Dual [2]; [7],1.41
O=C(O)c1cc(O)c2c(c1)C(=O)c1cccc(O)c1C2=O (library stock concentration (final ~1000-fold dilution): 10 mM),NF-kB SEAP reporter activity,RAW-Dual [2]; agonist: LPS (TLR4) 0.1 ug/mL,1.11 and 1.46
same,NF-kB SEAP reporter activity,RAW-Dual [2]; [5],1.06 and 1.02
same,NF-kB SEAP reporter activity,RAW-Dual [2]; [6],1.03 and 1.27
same,NF-kB SEAP reporter activity,RAW-Dual [2]; [7],1.34 and 1.23
Cc1ccc(Nc2c(F)cccc2Cl)c(CC(=O)O)c1,NF-kB SEAP reporter activity,RAW-Dual [1]; [3],0.731
same,NF-kB SEAP reporter activity,RAW-Dual [1]; [4],0.741
Cc1ccc(Nc2c(F)cccc2Cl)c(CC(=O)O)c1 (library stock concentration (final ~1000-fold dilution): 10 mM),NF-kB SEAP reporter activity,RAW-Dual [2]; agonist: LPS (TLR4) 0.1 ug/mL,1.27
same,NF-kB SEAP reporter activity,RAW-Dual [2]; [5],0.639
same,NF-kB SEAP reporter activity,RAW-Dual [2]; [6],1.1
same,NF-kB SEAP reporter activity,RAW-Dual [2]; [7],0.961
Cl.NC1=NCC2c3ccccc3Cc3ccccc3N12 (centres undefined) (library stock concentration (final ~1000-fold dilution): 10 mM),NF-kB SEAP reporter activity,RAW-Dual [2]; agonist: LPS (TLR4) 0.1 ug/mL,1.08
same,NF-kB SEAP reporter activity,RAW-Dual [2]; [5],0.869
same,NF-kB SEAP reporter activity,RAW-Dual [2]; [6],0.832
same,NF-kB SEAP reporter activity,RAW-Dual [2]; [7],0.894
Cl.NC1=NCC2c3ccccc3Cc3ccccc3N12 (centres undefined),NF-kB SEAP reporter activity,RAW-Dual [1]; [3],0.939
same,NF-kB SEAP reporter activity,RAW-Dual [1]; [4],1.02
O=c1cc(-c2cccc3c2Sc2ccccc2S3)oc(N2CCOCC2)c1,NF-kB SEAP reporter activity,RAW-Dual [1]; [3],1.04
same,NF-kB SEAP reporter activity,RAW-Dual [1]; [4],2.17
O=c1cc(-c2cccc3c2Sc2ccccc2S3)oc(N2CCOCC2)c1 (library stock concentration (final ~1000-fold dilution): 10 mM),NF-kB SEAP reporter activity,RAW-Dual [2]; agonist: LPS (TLR4) 0.1 ug/mL,2.66
same,NF-kB SEAP reporter activity,RAW-Dual [2]; [5],0.715
same,NF-kB SEAP reporter activity,RAW-Dual [2]; [6],0.748
same,NF-kB SEAP reporter activity,RAW-Dual [2]; [7],0.948
CNCC(O)C(O)C(O)C(O)CO.Cc1c(Nc2ncccc2C(=O)O)cccc1C(F)(F)F,NF-kB SEAP reporter activity,RAW-Dual [1]; [3],1
same,NF-kB SEAP reporter activity,RAW-Dual [1]; [4],0.888
CNCC(O)C(O)C(O)C(O)CO.Cc1c(Nc2ncccc2C(=O)O)cccc1C(F)(F)F (library stock concentration (final ~1000-fold dilution): 10 mM),NF-kB SEAP reporter activity,RAW-Dual [2]; agonist: LPS (TLR4) 0.1 ug/mL,0.803
same,NF-kB SEAP reporter activity,RAW-Dual [2]; [5],1.1
same,NF-kB SEAP reporter activity,RAW-Dual [2]; [6],0.664
same,NF-kB SEAP reporter activity,RAW-Dual [2]; [7],1.04
